Results reported in patent publication US9144239B2, “Macrocyclic picolinamides as fungicides” (DOW AGROSCIENCES LLC, priority 2012, dated 2015).

System: Magnaporthe grisea; anamorph: Pyricularia oryzae
Format: in vivo
Design: key: A: 80-100; B: More than 0-Less than 80; C: Not Tested; D: No activity noticed in this bioassay
Details: 100 ppm; 1 Day Protectant; rice

## COc1ccnc(C(=O)N[C@H]2COC[C@H](OC)[C@@H](OC)[C@H](C)OC2=O)c1OCOC(C)=O [Compound 65]
  Disease Control PYRIOR 1 DP: D
